# The supplement of paper PMC4604168 (melanoma cell lines)
# The other results are listed elsewhere or left out. Repeats are few or missing, and single values can be far off.
# Experiments:
# Test in all cases: cell count relative to DMSO control; melanoma cells; higher = more viable cells
# Settings in all cases: library dose: low library concentration; 72 h
# MZ2-MEL = tested on: MZ2-MEL
# MeWo = tested on: MeWo
# RPMI7951 = tested on: RPMI7951
# RVH-421 = tested on: RVH-421
# SkMel28 = tested on: SkMel28
# SkMel2 = tested on: SkMel2
# SkMel30 = tested on: SkMel30
# SkMel5 = tested on: SkMel5
# UACC257 = tested on: UACC257
# UACC62 = tested on: UACC62
# 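Note: cell number obtained by counting DAPI-stained nuclei in high-throughput microscope images with image analysis software, screen run in 1,536-well plates.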
Structure (SMILES),cell count (MZ2-MEL) [%],cell count (MeWo) [%],cell count (RPMI7951) [%],cell count (RVH-421) [%],cell count (SkMel28) [%],cell count (SkMel2) [%],cell count (SkMel30) [%],cell count (SkMel5) [%],cell count (UACC257) [%],cell count (UACC62) [%]
"CC(=O)O[C@@]12CO[C@@H]1C[C@H](O)[C@@]1(C)C(=O)[C@H](O)C3=C(C)[C@@H](OC(=O)[C@H](O)[C@@H](NC(=O)OC(C)(C)C)c4ccccc4)C[C@@](O)([C@@H](OC(=O)c4ccccc4)[C@H]21)C3(C)C [Docetaxel] + NC(=O)Nc1cc(-c2cccc(F)c2)sc1C(=O)N[C@H]1CCCNC1 [AZD7762] (first compound 0.0001 µM, partner dose 0.02 µM)",50.4,44.8,36,84.4,39.2,43.4,28.2,84.3,53.6,48.1
"CC(=O)O[C@@]12CO[C@@H]1C[C@H](O)[C@@]1(C)C(=O)[C@H](O)C3=C(C)[C@@H](OC(=O)[C@H](O)[C@@H](NC(=O)OC(C)(C)C)c4ccccc4)C[C@@](O)([C@@H](OC(=O)c4ccccc4)[C@H]21)C3(C)C [Docetaxel] + C[C@@H]1CCN(C(=O)CC#N)C[C@@H]1N(C)c1ncnc2[nH]ccc12 [CP690550] (first compound 0.0001 µM, partner dose 1 µM)",46.5,40.7,39.4,54.2,27.1,40.8,27.5,70,34.9,44.4
"CC(=O)c1c(C)c2cnc(Nc3ccc(N4CCNCC4)cn3)nc2n(C2CCCC2)c1=O [palbociclib] + O=C(O)c1ccc(-c2c[nH]c3ncc(-c4ccccc4)cc23)cc1C1CCCC1 [GSK650394] (first compound 0.04 µM, partner dose 0.16 µM)",70,81,91.8,102,68,79.5,92,65.7,67.4,72.9
"CC(=O)O[C@@]12CO[C@@H]1C[C@H](O)[C@@]1(C)C(=O)[C@H](O)C3=C(C)[C@@H](OC(=O)[C@H](O)[C@@H](NC(=O)OC(C)(C)C)c4ccccc4)C[C@@](O)([C@@H](OC(=O)c4ccccc4)[C@H]21)C3(C)C [Docetaxel] + O=C(CCCCCCC(=O)Nc1ccccc1)NO [vorinostat] (first compound 0.0001 µM, partner dose 0.08 µM)",43.7,34.8,36.5,57.4,37.9,36,29.9,91.2,35.9,38.6
"Nc1ccn([C@@H]2O[C@H](CO)[C@@H](O)C2(F)F)c(=O)n1 [gemcitabine] + CCN(CC)CCCCNc1ncc2cc(-c3cc(OC)cc(OC)c3)c(NC(=O)NC(C)(C)C)nc2n1 [PD173074] (first compound 0.0004 µM, partner dose 0.1 µM)",98,97.8,103,92,108,94.4,104,102,111,89.5
"Nc1ccn([C@@H]2O[C@H](CO)[C@@H](O)C2(F)F)c(=O)n1 [gemcitabine] + Cn1cncc1[C@@](N)(c1ccc(Cl)cc1)c1ccc2c(c1)c(-c1cccc(Cl)c1)cc(=O)n2C [tipifarnib] (first compound 0.0004 µM, partner dose 0.01 µM)",101,96.2,99,100,108,82.2,114,102,82,78.4
"Nc1nc(F)nc2c1ncn2[C@@H]1O[C@H](CO)[C@@H](O)[C@@H]1O [fludarabine] + Cn1cncc1[C@@](N)(c1ccc(Cl)cc1)c1ccc2c(c1)c(-c1cccc(Cl)c1)cc(=O)n2C [tipifarnib] (first compound 0.2 µM, partner dose 0.01 µM)",95.3,30.1,84.9,78.7,54.1,6.61,16.2,53.2,52.1,65
"CC(=O)c1c(C)c2cnc(Nc3ccc(N4CCNCC4)cn3)nc2n(C2CCCC2)c1=O [palbociclib] + CCCCCCCCCCCC1=C(O)C(=O)C=C(O)C1=O [Embelin] (first compound 0.04 µM, partner dose 1.2 µM)",94.1,82.7,72.2,76.4,61.3,90.4,73.5,62.6,75.7,87.5
"Nc1ncn([C@H]2C[C@H](O)[C@@H](CO)O2)c(=O)n1 [decitabine] + COc1ccc2c(c1)CCC1C2CCC2(C)C(NCCCCCCN3C(=O)C=CC3=O)CCC12 [U73122] (first compound 0.1 µM, partner dose 0.4 µM)",93.8,102,91,86.8,72.6,114,123,103,90.8,73
"CC(=O)c1c(C)c2cnc(Nc3ccc(N4CCNCC4)cn3)nc2n(C2CCCC2)c1=O [palbociclib] + Oc1nc(-c2ccc(C(F)(F)F)cc2)nc2c1CSCC2 [XAV939] (first compound 0.04 µM, partner dose 2 µM)",75.4,71.2,57.6,69.5,61.8,77.1,80.2,59.2,53.2,65
"CC(=O)c1c(C)c2cnc(Nc3ccc(N4CCNCC4)cn3)nc2n(C2CCCC2)c1=O [palbociclib] + O=c1cc(-c2cccc3c2Sc2ccccc2S3)oc(N2CCOCC2)c1 [KU55933] (first compound 0.04 µM, partner dose 1 µM)",76.9,68.4,81.7,84.4,70.2,83.2,76.7,73.7,64,75
"CC(=O)c1c(C)c2cnc(Nc3ccc(N4CCNCC4)cn3)nc2n(C2CCCC2)c1=O [palbociclib] + CO[C@@H]1[C@H](N(C)C(=O)c2ccccc2)C[C@H]2O[C@]1(C)n1c3ccccc3c3c4c(c5c6ccccc6n2c5c31)C(=O)NC4 [Midostaurin] (first compound 0.04 µM, partner dose 0.08 µM)",77.2,69.2,56.2,87,84.6,70.2,63.9,64.1,54.6,72.1
"CC(=O)O[C@@]12CO[C@@H]1C[C@H](O)[C@@]1(C)C(=O)[C@H](O)C3=C(C)[C@@H](OC(=O)[C@H](O)[C@@H](NC(=O)OC(C)(C)C)c4ccccc4)C[C@@](O)([C@@H](OC(=O)c4ccccc4)[C@H]21)C3(C)C [Docetaxel] + Oc1nc(-c2ccc(C(F)(F)F)cc2)nc2c1CSCC2 [XAV939] (first compound 0.0001 µM, partner dose 2 µM)",44.3,42.2,34,70,45.8,37.5,30.1,71.9,50.7,37.2
"Nc1nc(F)nc2c1ncn2[C@@H]1O[C@H](CO)[C@@H](O)[C@@H]1O [fludarabine] + CO[C@@H]1[C@H](N(C)C(=O)c2ccccc2)C[C@H]2O[C@]1(C)n1c3ccccc3c3c4c(c5c6ccccc6n2c5c31)C(=O)NC4 [Midostaurin] (first compound 0.2 µM, partner dose 0.08 µM)",99.3,21.7,88.8,91.8,66.1,4.11,15,48.6,44.2,95.1
"CC(=O)c1c(C)c2cnc(Nc3ccc(N4CCNCC4)cn3)nc2n(C2CCCC2)c1=O [palbociclib] + Cc1cc(N2CCOCC2)cc2[nH]c(-c3c(NC[C@@H](O)c4cccc(Cl)c4)cc[nH]c3=O)nc12 [BMS536924] (first compound 0.04 µM, partner dose 0.2 µM)",73.7,62.1,76.7,65.8,77.4,72.5,51.3,64.7,63.2,61.7
"CC(=O)O[C@@]12CO[C@@H]1C[C@H](O)[C@@]1(C)C(=O)[C@H](O)C3=C(C)[C@@H](OC(=O)[C@H](O)[C@@H](NC(=O)OC(C)(C)C)c4ccccc4)C[C@@](O)([C@@H](OC(=O)c4ccccc4)[C@H]21)C3(C)C [Docetaxel] + COc1ccc2c(c1)CCC1C2CCC2(C)C(NCCCCCCN3C(=O)C=CC3=O)CCC12 [U73122] (first compound 0.0001 µM, partner dose 0.4 µM)",44.1,41.8,33.8,69.4,37.9,34.9,34.8,75.7,55.7,38.3
"Nc1ccn([C@@H]2O[C@H](CO)[C@@H](O)C2(F)F)c(=O)n1 [gemcitabine] + C[C@@H]1CCN(C(=O)CC#N)C[C@@H]1N(C)c1ncnc2[nH]ccc12 [CP690550] (first compound 0.0004 µM, partner dose 1 µM)",106,101,93.6,97.1,106,96.2,113,98.8,105,92.9
"Nc1ncn([C@H]2C[C@H](O)[C@@H](CO)O2)c(=O)n1 [decitabine] + COc1cc2ncnc(Nc3ccc(Oc4ccccc4)cc3)c2cc1OC [SrcI1] (first compound 0.1 µM, partner dose 2 µM)",91.4,95.6,111,71.2,110,100,139,118,110,82
"CC(=O)O[C@@]12CO[C@@H]1C[C@H](O)[C@@]1(C)C(=O)[C@H](O)C3=C(C)[C@@H](OC(=O)[C@H](O)[C@@H](NC(=O)OC(C)(C)C)c4ccccc4)C[C@@](O)([C@@H](OC(=O)c4ccccc4)[C@H]21)C3(C)C [Docetaxel] + COc1ccc(COc2ccc(Cc3cnc(N)nc3N)cc2OC)cc1 [GW2580] (first compound 0.0001 µM, partner dose 1 µM)",51.7,37.2,41.8,64.8,37.6,33.8,26.6,58.2,33.6,42.6
"Nc1nc(F)nc2c1ncn2[C@@H]1O[C@H](CO)[C@@H](O)[C@@H]1O [fludarabine] + COC(=O)c1sccc1S(=O)(=O)Nc1ccc(Nc2ccccc2)cc1OC [GSK0660] (first compound 0.2 µM, partner dose 1 µM)",95.9,29.3,85.4,103,66,4.87,17.1,58.2,95.6,96
"Nc1ncn([C@H]2C[C@H](O)[C@@H](CO)O2)c(=O)n1 [decitabine] + C=CCn1c(=O)c2cnc(Nc3ccc(N4CCN(C)CC4)cc3)nc2n1-c1cccc(C(C)(C)O)n1 [MK1775] (first compound 0.1 µM, partner dose 0.02 µM)",81.3,91,89.7,94.1,79,98.2,100,88.4,82.4,65.2
"Nc1nc(F)nc2c1ncn2[C@@H]1O[C@H](CO)[C@@H](O)[C@@H]1O [fludarabine] + NC(=O)Nc1cc(-c2cccc(F)c2)sc1C(=O)N[C@H]1CCCNC1 [AZD7762] (first compound 0.2 µM, partner dose 0.02 µM)",100,32.5,70.1,90.1,63.4,8.17,15.7,58.5,109,91.9
